Read counts are not given, so values of variants with three or more changes are uncertain.

B1: LINE1-full (parent)
chain: UACGUAGGUGGUUUUCCCCUGAUAGUGCUAAGGGGGCCUGGAAGUUUGGACUGGGCAGAGCUCAACACAGCGUGGCAAAGUGGCUGUGGCUAGACUGCCUCUCUGGAUUCCUCGUCACUCAGCAGGGCAUCUCUGAGAGAAAUGCC

The variants in this data set derive from B1. The data set is described as follows: self-cleavage, relative activity (ratio to wild type); higher = more cleavage; in vitro, sequencing; the parent is a self-cleaving ribozyme.
For A2G A129G U132C U134C, the self-cleavage was 0.84. Next, U1C U20A U87A U96C A124G: 0.14; A2G U5C A78G: 0.96; U1G A43U U102A U132C: 0.51. Next, U1C U15A U100A: 0.49; A2G C18G U47G U104C: 0.

Regarding U1C U85C A142G, the self-cleavage came to 0.16. In the case of U1C U23C G72A U119C it was 1.19. In the case of A2G C76U A78U U109C it was 1.21. In the case of A2G A42G U96C A142G, the self-cleavage was found to be 0.31. With A2G A30G A69G A136U, the self-cleavage amounted to 0.53. With A2G C76U G83A, the self-cleavage amounted to 0.55. Next, U1C U73A A107G U132G: 2.7; U1C U20C U47C G49A U130C: 1.38; A2G A31C A57G U119A: 0.28. Next, U1C U29C U46C U62A U109C G126A U143A: 0.11; U1C U15A A129U: 0.75. In the case of A2C A65G G89C it was 0.04; in that of A2G G25A A57U A129G, 0.49.

Consider A2C A124U A141G, for which the self-cleavage stood at 0.77. In the case of A2G A24G U81A it was 1.24; in that of U1C U15A A31G, 1.04. With U1C U26A U52A A69G, the self-cleavage is 0.28. Next, A2G A59G U132A: 0. Next, A2G G11A G93U A94G: 0.16.

As to A2G G41A A43G, the self-cleavage came to 0.77. In the case of U1C U23C A30U U47C it was 0.42; in that of A2G A67G U115C A140G, 1.53. In the case of A2G C3U G8A G72A it was 0.74.

Turning to A2G A50U C118U, the self-cleavage was determined as 0.63. In the case of A2G A22G U62A A94G U108C it was 0; in that of A2G U9A A24G U46C U47A U100A A138G A142G, 0. As to A2C G10A U143C, the self-cleavage was determined as 1.27. Next, A2G C18U C28G A107G: 1.67; A2G A67G A77G: 0. Next, A2C U45G U46C A69U G106A C111U U130A: 0.11.

Consider A2G U5A U15A C37G G106U U130A, for which the self-cleavage is 0.83. Take U1C U62C C146U: the self-cleavage was determined as 0.

For A2G A64U A136G, the self-cleavage is 0.86. In the case of U1C U20C A69G it was 1.41; in that of U1C U104A U112C, 0.33. In the case of U1C U119C U134C A136U it was 1.03. In the case of A2G A65G U96A A136G A141G it was 0.16; in that of A2G G27A U39C C84G C99U U102A A136U U143C, 0.07; in that of U1C U39C U85A U134C A138G, 0.16.

A2G A24U C37U: the self-cleavage was found to be 0.57. Next, U1G A121U U132C A141G: 1.71; U1C U130C A138G: 1.87; A2G A50G A136G A140G: 0. In the case of A2G U5A U15C U73C it was 1.08; in that of A2G A57U A64U U96C, 0; in that of A2C U13C U20C U23C, 0. In the case of A2G U5A U12A U47A G48A U85A it was 0.2; in that of A2G C3A U102C A136U, 1.93. As for U1C U119C A142G, the self-cleavage worked out at 2.21. In the case of U1C U46C A79G U104C C145G it was 0.92; in that of U1C U20C A22G U81G C90U A124U, 0.13; in that of A2G G125U A136G A141G, 0.89. In the case of U1C U45A A77G it was 1.69; in that of A2G A67G U100A U134C, 0; in that of U1C U62C A79G, 0. On to A2C U91C U100A, for which the self-cleavage came to 0.12.

On to A2G A69U U87A A124G U132A, for which the self-cleavage worked out at 0.25. In the case of A2G C18U A77U C98G A124G it was 0.14; in that of U1C U130C G137U, 0.62; in that of A2G G36A A64G C68A A77G G97A, 0.03. Next, A2G G8A A42G U130C: 0.34; U1C U15C A22G A42G A69U G80U C101A A129U: 0.51; U1G A77G G80A U91G: 0.13. In the case of U1G U132C A138G it was 2.55. Consider A2G U9C G72A A141G, for which the self-cleavage was 1.46. As to A2C A67G A77G, the self-cleavage was 1.08. Next, A2G U9C A142G: 0.54. In the case of A2G A30U A129G it was 0.66; in that of A2G G21A G49A A136G, 0.6; in that of A2G A67G A117G, 1.31. In the case of U1C U100C A140U it was 0.93.

A2C G35A U46G G60U G88A: the self-cleavage stood at 0.01. In the case of A2G A50G U52C C103U U109A it was 0; in that of A2C U73A U134C, 1.44. Next, A2G A65G U100C: 0.17; A2G A22C A124G A141G: 1.02; A2C A24G A136U: 0.85. In the case of A2G G10A A22G A117G it was 0.86.

The record behind these values is the RNAGym collection of RNA variant scans (doi:10.7554/elife.90254).
